# Results as given in PubChem BioAssay AID588591 (National Center for Advancing Translational Sciences (NCATS), 2011).
# Out of some 390,000 compounds screened, about 4,700 (1.2%) were called active. The shares of active, inactive and inconclusive entries below differ from those in the screen. Calls come from the whole dose curve; as a rule, active = well fitted inhibition curve with a large enough effect; inconclusive = small, poorly fitted or top-dose-only effect, or another doubt; inactive = no such curve, though single readings can be large or run the other way. Potencies beside an inconclusive call are fits to weak or partial responses and may not hold up.
# Molecular target: DNA polymerase eta (Homo sapiens) (UniProt Q9Y253)
# Experiment: qHTS for Inhibitors of Polymerase Eta
# Conditions: recombinant Pol eta, fluorescent DNA replication assay; series mostly up to 114 µM
# Description: The Y-family of DNA polymerases, such as Pol eta, are specifically involved in DNA repair. Pol eta copies undamaged DNA with a lower fidelity than other DNA-directed polymerases. However, it accurately replicates UV-damaged DNA; when thymine dimers are present, this polymerase inserts the complementary nucleotides in the newly synthesized DNA, thereby bypassing the lesion and suppressing the mutagenic effect of UV-induced DNA damage. […] Thus, while pol eta's (and most likely iota's) normal function is to protect humans against the deleterious consequences of DNA damage, under certain conditions they can have deleterious effects on human health. As a consequence, we propose to utilize a high throughput replication assay to identify small molecule inhibitors of pol eta. In a collaboration between the National Institute of Child Health & Human Development (NICHD) and NIH Chemical Genomics Center, a high-throughput, fluorescent screen was developed to screen the NIH Molecular Libraries Small Molecule Repository (MLSMR). This screen is used to identify inhibitors of pol eta. NIH Chemical Genomics Center [NCGC] NIH Molecular Libraries Probe Centers Network [MLPCN] MLPCN Grant: MH090825 Assay Submitter (PI): Roger Woodgate, NICHD)
# Three microliters of reagents (buffer in column 3 and 4 as negative control and 10 nM Pol eta in columns 1, 2, and 5-48) were dispensed into a 1,536-well black solid-bottomed plate. Compounds (23 nL) were transferred via Kalypsys pin tool equipped with 1536-pin array. The plates were then incubated for 15 min at room temperature, and 1 µL substrate (50 nM final concentration) was added to start the reaction and kinetically read twice at 0 min and 10 min on the Viewlux reader
# Potency is the fitted concentration of half-maximal effect; tags give direction and shape of the fitted curve.
# Sequence of UniProt Q9Y253 (Q9Y253 whole entry, looked up): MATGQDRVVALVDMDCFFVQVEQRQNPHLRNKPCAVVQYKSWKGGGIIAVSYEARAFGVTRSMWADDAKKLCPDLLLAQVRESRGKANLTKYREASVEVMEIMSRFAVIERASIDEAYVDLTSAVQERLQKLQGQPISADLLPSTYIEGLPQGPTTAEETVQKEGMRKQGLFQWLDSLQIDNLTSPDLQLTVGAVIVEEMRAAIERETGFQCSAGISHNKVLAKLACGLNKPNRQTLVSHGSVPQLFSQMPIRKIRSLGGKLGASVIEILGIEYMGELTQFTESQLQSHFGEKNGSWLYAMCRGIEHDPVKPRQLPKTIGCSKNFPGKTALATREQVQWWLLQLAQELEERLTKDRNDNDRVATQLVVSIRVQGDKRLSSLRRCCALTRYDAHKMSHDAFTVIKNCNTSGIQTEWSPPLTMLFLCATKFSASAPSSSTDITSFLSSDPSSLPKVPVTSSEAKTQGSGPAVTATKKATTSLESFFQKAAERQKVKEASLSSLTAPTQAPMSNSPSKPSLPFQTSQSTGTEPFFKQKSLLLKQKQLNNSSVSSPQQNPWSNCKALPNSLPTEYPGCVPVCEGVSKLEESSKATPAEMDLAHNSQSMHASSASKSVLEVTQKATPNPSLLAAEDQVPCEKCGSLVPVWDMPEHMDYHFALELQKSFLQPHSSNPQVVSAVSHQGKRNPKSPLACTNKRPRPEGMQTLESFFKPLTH
row,Structure (SMILES),Potency
1,COc1cc2ccccc2cc1C(=O)N(CCN(C)C)c1nc2c(OC)ccc(OC)c2s1,"inconclusive: 50.1 µM [inhibitor, partial curve, poor fit]"
2,CC(C)CSC1=NSC2=NC(=O)/C(=C\c3coc4ccccc4c3=O)C(=N)N12,active: 17.8 µM
3,CC1=CSC2=NC(=O)/C(=C/c3cccc(OC(=O)c4ccco4)c3)C(=N)N12,"inconclusive: 31.6 µM [inhibitor, single point]"
4,O=C(CCC(=O)c1cccs1)OCC(=O)N1CCN(C(=O)c2ccco2)CC1,"inconclusive: 100 µM [inhibitor, partial curve, poor fit]"
5,Cc1nc(S/C(=C\c2ccc(-c3ccc(C(=O)O)c(Cl)c3)o2)C(=O)O)n[nH]1,active: 5.01 µM
6,O=C1N/C(=C\c2ccc(O)cc2)C(=O)c2ccccc21,active: 25.1 µM
7,COc1cc(O)cc2cc3c(c(O)c12)C(=O)CC(C)(O)O3 (stereo not given),active: 44.7 µM
8,CC1CCCCC1NC(=O)c1ccc(NC2=NC3CS(=O)(=O)CC3S2)cc1 (stereo not given),"inconclusive: 89.1 µM [inhibitor, single point]"
9,Cc1ccnc(Nc2nc(-c3ccc(O)c(O)c3)cs2)c1,"inconclusive: 50.1 µM [inhibitor, partial curve, poor fit]"
10,COc1ccc(OC)c(NC(=O)N2CC3CCCN3c3ccccc32)c1 (stereo not given),inactive
11,CCOc1ccc(OCCC(=O)NNC(=O)c2ccccc2Cl)cc1,"inconclusive: 20 µM [inhibitor, partial curve, poor fit]"
12,C#CCOCCOCCOCCNc1nc(N2CCN(C(=O)CCCCCCCCCCNC(=O)[C@H](CCCCN)n3cc(CCO)nn3)CC2)nc(N2CCN(C(=O)CCCCCCCCCCNC(=O)[C@H](CCCN=C(N)N)n3cc(C[C@@H](C)CC)nn3)CC2)n1,active: 79.4 µM
13,CO/N=C(\Cn1ncc(N2CCCC2)c(Cl)c1=O)c1ccc(Cl)cc1,"inconclusive: 89.1 µM [inhibitor, partial curve, poor fit]"
14,Cc1ccc(C(=O)OCC(=O)c2ccc(CC(=O)N3CCOCC3)s2)cc1C,active: 12.6 µM
15,CCN1CCN(c2ccc(S(=O)(=O)N3CCCCC3)cc2NC(=O)/C=C/c2ccc(OC)c(OC)c2)CC1,"inconclusive: 89.1 µM [inhibitor, partial curve, poor fit]"
16,CC(CS(=O)(=O)c1ccc2c(c1)NC(=O)CS2)C(=O)NCc1ccccc1Cl (stereo not given),active: 17.8 µM
17,N#CCSc1nc2ccccc2c2nc3ccccc3n12,"inconclusive: 25.1 µM [inhibitor, partial curve]"
18,O=C(O)c1ccc2c(=O)n3c(nc2c1)/C(=C/c1ccccc1OC(F)F)CC3,"inconclusive: 31.6 µM [inhibitor, partial curve, poor fit]"
19,O=c1cc(CSc2nnc(-c3cccnc3)n2-c2ccccc2F)nc2sccn12,"inconclusive: 100 µM [inhibitor, partial curve, poor fit]"
20,CC(=O)c1ccc(S(=O)(=O)N2CCN(C(=O)CSc3ccc(C)c(C)c3)CC2)cc1,"inconclusive: 89.1 µM [inhibitor, partial curve, poor fit]"
21,O=C(N/C=N/OCc1ccc(Cl)cc1Cl)NOCc1ncc(C(F)(F)F)cc1Cl,"inconclusive: 31.6 µM [inhibitor, partial curve, poor fit]"
22,Cc1ccc(Nc2cc(C)c(C#N)c3nc4ccccc4n23)c(C)c1,inactive

row,Structure (SMILES),Potency
1,CCc1ccc(CNC(=O)c2cnc3c(C)cccn3c2=O)cc1,inactive
2,CCOC(=O)c1c(C)oc2c1c(C=NC1CCS(=O)(=O)C1)c(O)c1ccccc12 (stereo not given),"inconclusive: 25.1 µM [inhibitor, partial curve]"
3,COc1ccc(OC)c(/C=N/Nc2nc(C)cc(=O)[nH]2)c1,"inconclusive: 39.8 µM [inhibitor, single point]"
4,CCN1C=C(Cc2cccs2)C2=C(C1)C(c1cccs1)C(C#N)=C(N)O2 (stereo not given),"inconclusive: 20 µM [inhibitor, full curve, poor fit]"
5,CCCCc1cc(=O)oc2cc(OCC(=O)N3CCc4ccccc43)ccc12,"inconclusive: 31.6 µM [inhibitor, partial curve]"
6,CCOc1cc(/C=C2\N=C(SCC)SC2=O)cc([N+](=O)[O-])c1OC(C)=O,active: 44.7 µM
7,COc1cc(/C=N/NC(=S)NCCN2CCOCC2)cc(OC)c1O,inactive
8,O=C(CN1C(=O)/C(=C2\SC(=S)N(CCS(=O)(=O)O)C2=O)c2ccccc21)Nc1cccc(Br)c1,"inconclusive: 44.7 µM [inhibitor, partial curve]"
9,COc1ccc(/C=C/C(=O)OCC(=O)NC2CCCCCC2)cc1OC,"inconclusive: 25.1 µM [inhibitor, single point]"
10,CS(=O)(=O)N(Cc1ccccc1)c1ccc(C(=O)Nc2ccc(Cl)cc2)cc1,inactive
11,C/C=C/c1cc(CN2CCN(c3ccccc3)CC2)c(O)c(OC)c1,"inconclusive: 100 µM [inhibitor, partial curve, poor fit]"
12,Cc1ccc(-c2cc(C(=O)N/N=C/c3ccccc3O)n[nH]2)o1,inactive
13,Cc1cnc(NC(=O)C2COc3ccccc3O2)s1 (stereo not given),"inconclusive: 12.6 µM [inhibitor, partial curve, poor fit]"
14,CC(C)C[C@H](NC(=O)c1nc[nH]c1C(=O)N1CCN(C(=O)OC(C)(C)C)CC1)C(=O)OCc1ccccc1,"inconclusive: 79.4 µM [inhibitor, partial curve, poor fit]"
15,Cc1cnc(C(=O)OCC(=O)Nc2sc3c(c2C#N)CCC3)cn1,active: 22.4 µM
16,O=C(Nc1nc2ccc(SC(F)F)cc2s1)c1ccc(NS(=O)(=O)c2ccc(F)c(F)c2)cc1,"inconclusive: 35.5 µM [inhibitor, partial curve]"
17,CN1\C(=C/C=C/C=C/C=[N+](C)C)C(C)(C)c2ccccc21,active: 39.8 µM
18,NC(=O)[C@H](Cc1cc2ccccc2s1)NC(=O)[C@@H]1CC2(CC(c3cccc(NC(=O)[C@@H]4CCC(=O)N4)c3)=NO2)CN1C(=O)/C=C/Sc1ccccc1 (stereo not given in full),"inconclusive: 79.4 µM [inhibitor, single point]"
19,COc1ccc(NC(=O)C(=S)N2CCCC2)cc1,"inconclusive: 20 µM [inhibitor, partial curve, poor fit]"
20,C(=N\Nc1ccc(-n2ccnc2)nn1)/c1ccccc1,"inconclusive: 11.2 µM [inhibitor, partial curve, poor fit]"
21,O=C(Cn1cnc2ccccc2c1=O)NCCC(=O)Nc1ccc(F)cc1,"inconclusive: 3.16 µM [inhibitor, partial curve, poor fit]"
22,O=C(COc1cccc2c1CCN(Cc1ccc(Br)cc1)C2=O)NCc1ccco1,"inconclusive: 25.1 µM [inhibitor, single point]"

row,Structure (SMILES),Potency
1,CS(=O)(=O)C1=NSC2=NC(=O)/C(=C\c3ccc(OC(=O)c4ccco4)c(Br)c3)C(=N)N21,active: 50.1 µM
2,Cc1ccc(CCNC(=O)c2c(C)oc3ncn(CC(C)C)c(=O)c23)cc1,inactive
3,O=C(CNC(=O)OCc1ccccc1)NCC(=O)Oc1ccc([N+](=O)[O-])cc1,inactive
4,COc1ccc(OCc2cc(C(=O)NCCN3CCCc4ccccc43)no2)c(Cl)c1,inactive
5,Cc1c(NS(=O)(=O)c2cccc(C(=O)NC(C)c3ccccc3)c2)c(=O)n(-c2ccccc2)n1C (stereo not given),inactive
6,O=C(Cn1ncn2c(cc3ccccc32)c1=O)NCc1ccc(F)cc1,inactive
7,Cc1ccc(C(=O)Nc2ccc(Oc3ccc(C(=O)O)c(C(=O)O)c3)cc2)cc1C,"inconclusive: 14.1 µM [inhibitor, partial curve, poor fit]"
8,O=C(COc1coc(CN2CCc3ccccc32)cc1=O)NCCc1ccccc1,"inconclusive: 35.5 µM [inhibitor, partial curve, poor fit]"
9,CCN(CC)c1ccc(CNc2nc3ccccc3n2C(C)C)cc1,inactive
10,CC(=O)NN1C(=O)/C(=C\c2ccc(O)cc2)SC1=S,inactive
11,O=C(COC(=O)c1cn(-c2ccccc2)nc1-c1ccc(F)cc1)Nc1ncc(Cl)cc1Cl,"inconclusive: 20 µM [inhibitor, full curve, poor fit]"
12,O=C(COC(=O)c1cc[n+]([O-])cc1)Nc1ccc(F)c([N+](=O)[O-])c1,inactive
13,O=C(/C=C/c1ccc(Cl)cc1Cl)c1cccnc1,"inconclusive: 5.01 µM [inhibitor, full curve, poor fit]"
14,Cc1ccc(-n2c(-c3ccc(Cl)cc3Cl)n[nH]c2=S)cc1,inactive
15,Cc1cccc(S(=O)(=O)c2c(N)n(Cc3ccco3)c3nc4ccccc4nc23)c1,"inconclusive: 15.8 µM [inhibitor, partial curve, poor fit]"
16,Cc1ccc(Cl)cc1NC(=O)CN1C(=O)CCc2ccccc21,inactive
17,CCOc1ccc(N2CC(O)=C(c3nc4ccccc4c(=O)[nH]3)C2=N)cc1,"inconclusive: 44.7 µM [inhibitor, partial curve, poor fit]"
18,CCCCNC(=O)CCCCC(=O)N/N=C/c1cccc(Cl)c1,"inconclusive: 89.1 µM [inhibitor, partial curve, poor fit]"
19,CC1(C)CCc2cc(-c3ccn(S(=O)(=O)c4ccccc4Cl)n3)ccc2O1,"inconclusive: 89.1 µM [inhibitor, partial curve, poor fit]"
20,N#C/C(=C\Nc1ccc2c(c1)OCCO2)c1nc2ccccc2[nH]1,"inconclusive: 79.4 µM [inhibitor, partial curve, poor fit]"
21,O=c1nc2c(O)cccn2c2c1c(=O)[nH]c1ccccc12,"inconclusive: 15.8 µM [inhibitor, full curve, poor fit]"
